Article PMC5053508
Where two headings read alike, the source gives them in different places. These are yes or no findings as the source states them, for the method shown. Binding seen in cells or lysates may run through a third protein. Some entries that bind do so weakly or less than the wild type. For part of these data: Tags and fused reporters may be left off the sequences shown.

Protein sequences, listed by entry. Tags and fused reporters are not part of them.
UniProt Q99683: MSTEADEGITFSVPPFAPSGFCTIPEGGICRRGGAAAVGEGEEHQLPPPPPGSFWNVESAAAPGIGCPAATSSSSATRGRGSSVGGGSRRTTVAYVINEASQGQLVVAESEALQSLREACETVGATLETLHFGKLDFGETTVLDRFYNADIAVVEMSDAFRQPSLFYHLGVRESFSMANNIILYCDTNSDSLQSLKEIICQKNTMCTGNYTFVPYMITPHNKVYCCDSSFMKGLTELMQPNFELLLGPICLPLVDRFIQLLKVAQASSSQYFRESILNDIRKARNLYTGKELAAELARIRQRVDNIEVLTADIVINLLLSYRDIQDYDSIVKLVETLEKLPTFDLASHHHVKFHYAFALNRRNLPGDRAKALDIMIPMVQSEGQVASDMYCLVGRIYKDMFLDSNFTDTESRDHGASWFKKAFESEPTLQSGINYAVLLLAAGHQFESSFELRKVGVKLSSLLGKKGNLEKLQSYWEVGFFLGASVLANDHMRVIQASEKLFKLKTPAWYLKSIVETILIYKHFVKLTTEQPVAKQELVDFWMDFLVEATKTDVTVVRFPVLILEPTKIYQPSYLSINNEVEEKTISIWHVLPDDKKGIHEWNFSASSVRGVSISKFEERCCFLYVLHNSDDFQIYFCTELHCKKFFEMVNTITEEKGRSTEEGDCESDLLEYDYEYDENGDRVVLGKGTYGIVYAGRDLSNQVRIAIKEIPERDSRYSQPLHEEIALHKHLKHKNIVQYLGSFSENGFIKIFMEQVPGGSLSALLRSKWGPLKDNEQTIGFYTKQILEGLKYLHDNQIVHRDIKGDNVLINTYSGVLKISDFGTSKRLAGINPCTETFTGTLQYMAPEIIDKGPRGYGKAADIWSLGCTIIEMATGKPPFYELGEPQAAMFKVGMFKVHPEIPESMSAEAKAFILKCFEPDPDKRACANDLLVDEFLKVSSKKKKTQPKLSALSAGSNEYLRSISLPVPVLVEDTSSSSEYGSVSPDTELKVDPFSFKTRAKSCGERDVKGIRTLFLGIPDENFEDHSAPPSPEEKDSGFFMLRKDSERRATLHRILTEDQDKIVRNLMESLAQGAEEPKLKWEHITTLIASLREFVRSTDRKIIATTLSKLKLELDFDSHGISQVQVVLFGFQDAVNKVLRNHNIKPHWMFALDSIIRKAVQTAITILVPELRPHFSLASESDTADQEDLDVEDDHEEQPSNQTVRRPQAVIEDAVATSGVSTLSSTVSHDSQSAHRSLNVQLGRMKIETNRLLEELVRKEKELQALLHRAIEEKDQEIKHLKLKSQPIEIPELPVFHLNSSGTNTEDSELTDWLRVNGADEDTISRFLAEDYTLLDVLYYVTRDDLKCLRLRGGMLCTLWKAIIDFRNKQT
UniProt O14733: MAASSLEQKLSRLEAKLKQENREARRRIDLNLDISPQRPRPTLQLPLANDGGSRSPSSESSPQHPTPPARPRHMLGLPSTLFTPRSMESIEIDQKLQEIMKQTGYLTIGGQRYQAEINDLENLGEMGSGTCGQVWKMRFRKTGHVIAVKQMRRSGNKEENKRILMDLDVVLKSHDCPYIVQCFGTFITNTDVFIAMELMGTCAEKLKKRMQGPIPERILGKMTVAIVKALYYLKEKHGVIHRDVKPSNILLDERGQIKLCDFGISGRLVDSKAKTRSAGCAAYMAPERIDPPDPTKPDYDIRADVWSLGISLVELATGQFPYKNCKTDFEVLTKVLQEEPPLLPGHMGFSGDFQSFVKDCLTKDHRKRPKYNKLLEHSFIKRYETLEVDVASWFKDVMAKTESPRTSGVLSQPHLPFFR
UniProt P45983: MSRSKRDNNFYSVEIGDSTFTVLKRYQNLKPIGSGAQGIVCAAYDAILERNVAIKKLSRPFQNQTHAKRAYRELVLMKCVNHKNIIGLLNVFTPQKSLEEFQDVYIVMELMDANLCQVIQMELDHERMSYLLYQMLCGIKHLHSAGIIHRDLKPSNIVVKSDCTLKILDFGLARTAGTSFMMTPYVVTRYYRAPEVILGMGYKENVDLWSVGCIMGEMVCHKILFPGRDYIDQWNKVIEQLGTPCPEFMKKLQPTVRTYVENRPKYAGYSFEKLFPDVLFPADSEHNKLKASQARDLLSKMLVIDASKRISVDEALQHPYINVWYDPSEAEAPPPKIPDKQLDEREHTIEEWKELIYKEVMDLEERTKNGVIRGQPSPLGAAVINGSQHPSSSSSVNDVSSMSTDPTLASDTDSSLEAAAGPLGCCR

T1: FLAG-DUSP22 C88S (UniProt Q9NRW4)
T1 sequence: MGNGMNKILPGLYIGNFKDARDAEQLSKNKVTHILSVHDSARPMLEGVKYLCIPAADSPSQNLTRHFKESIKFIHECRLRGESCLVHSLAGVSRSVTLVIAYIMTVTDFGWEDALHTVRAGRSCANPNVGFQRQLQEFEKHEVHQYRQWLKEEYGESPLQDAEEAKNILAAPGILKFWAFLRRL

T2: FLAG-DUSP22 WT (dual-specificity phosphatase 22) (UniProt Q9NRW4)
T2 sequence: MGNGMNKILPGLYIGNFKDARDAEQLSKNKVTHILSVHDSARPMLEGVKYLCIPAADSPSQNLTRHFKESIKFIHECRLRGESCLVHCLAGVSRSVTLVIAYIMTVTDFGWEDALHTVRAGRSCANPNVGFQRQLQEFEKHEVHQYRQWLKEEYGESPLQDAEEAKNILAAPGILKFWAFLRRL


What was measured:
FLAG-ASK1 [1] = molecular target: FLAG-ASK1 (UniProt Q99683); assay: co-IP; HEK 293 cells co-transfected with FLAG-ASK1 and GST-MKK7, then with HA-DUSP22 plasmid (0, 0.75, 1.5, 3 μg); lysate precipitated with anti-FLAG M2 affinity gel; immunoblot with anti-HA, anti-GST or anti-FLAG
FLAG-DUSP22 C88S = molecular target: T1, FLAG-DUSP22 C88S; assay: co-IP; HEK 293 cells co-transfected with a FLAG-tagged and an HA-tagged protein, lysed after 48 h in PTP lysis buffer (20 mM Tris-HCl pH 7.5, 150 mM NaCl, 1 mM EDTA, 0.5% Triton X-100, 0.5% IGEPAL, 10% glycerol, 1 mM DTT); lysate precipitated with anti-FLAG M2 affinity gel 16 h at 4°C; immunoblot with anti-HA
[2] = molecular target: T2, FLAG-DUSP22 WT (dual-specificity phosphatase 22); assay: as above
FLAG-ASK1 [3] = molecular target: FLAG-ASK1 (UniProt Q99683); assay: as above
[4] = molecular target: T2, FLAG-DUSP22 WT (dual-specificity phosphatase 22); assay: as above; remark: listed apart in the source

| binding (FLAG-DUSP22 C88S) | binding [2] | also measured | Molecule |
| --- | --- | --- | --- |
|  |  | binding (FLAG-ASK1 [1]): binds | GST-MKK7 (from UniProt O14733 1-419) (enzyme) |
| binds | binds |  | HA-JNK1 (c-Jun N-terminal kinase 1) (from UniProt P45983 1-427) (enzyme) |
| binds | binds |  | HA-JNK2 (c-Jun N-terminal kinase 2) (from UniProt P45984 1-424) (enzyme) |
| binds | binds |  | HA-MKK7 (MAPK kinase 7) (from UniProt O14733 1-419) (enzyme) |
|  |  | binding (FLAG-ASK1 [3]): binds | HA-DUSP22 WT (enzyme, UniProt Q9NRW4 1-184) MGNGMNKILPGLYIGNFKDARDAEQLSKNKVTHILSVHDSARPMLEGVKYLCIPAADSPSQNLTRHFKESIKFIHECRLRGESCLVHCLAGVSRSVTLVIAYIMTVTDFGWEDALHTVRAGRSCANPNVGFQRQLQEFEKHEVHQYRQWLKEEYGESPLQDAEEAKNILAAPGILKFWAFLRRL |
|  |  | binding [4]: no binding | HA-MKK4 (enzyme, UniProt P45985 1-399) MAAPSPSGGGGSGGGSGSGTPGPVGSPAPGHPAVSSMQGKRKALKLNFANPPFKSTARFTLNPNPTGVQNPHIERLRTHSIESSGKLKISPEQHWDFTAEDLKDLGEIGRGAYGSVNKMVHKPSGQIMAVKRIRSTVDEKEQKQLLMDLDVVMRSSDCPYIVQFYGALFREGDCWICMELMSTSFDKFYKYVYSVLDDVIPEEILGKITLATVKALNHLKENLKIIHRDIKPSNILLDRSGNIKLCDFGISGQLVDSIAKTRDAGCRPYMAPERIDPSASRQGYDVRSDVWSLGITLYELATGRFPYPKWNSVFDQLTQVVKGDPPQLSNSEEREFSPSFINFVNLCLTKDESKRPKYKELLKHPFILMYEERAVEVACYVCKILDQMPATPSSPMYVD |
